# In all, about 110,000 compounds were measured (“z-score”: median about -0.1, highest 2% from about 2 on). The list shows a part of the results. The source made the active and inactive calls.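 Rule for the calls: active = z-score in the third read window above 3 or below -3; inactive = the rest.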
# Biological target: Metabotropic glutamate receptor 8 (Rattus norvegicus) (UniProt P70579)
# Assay: mGluR8 Gi/Go-coupled signaling modulation – cell-based, rat, thallium flux, HTS, primary screen (AID 488969)
# Conditions: HEK293 rat mGluR8, GIRK (G protein-gated inwardly rectifying potassium channel) thallium flux, FluoZin2; at 10 µM; stronger effect = higher value; submaximal glutamate (EC20) added with thallium
# Chain of UniProt P70579 (P70579 whole entry, looked up): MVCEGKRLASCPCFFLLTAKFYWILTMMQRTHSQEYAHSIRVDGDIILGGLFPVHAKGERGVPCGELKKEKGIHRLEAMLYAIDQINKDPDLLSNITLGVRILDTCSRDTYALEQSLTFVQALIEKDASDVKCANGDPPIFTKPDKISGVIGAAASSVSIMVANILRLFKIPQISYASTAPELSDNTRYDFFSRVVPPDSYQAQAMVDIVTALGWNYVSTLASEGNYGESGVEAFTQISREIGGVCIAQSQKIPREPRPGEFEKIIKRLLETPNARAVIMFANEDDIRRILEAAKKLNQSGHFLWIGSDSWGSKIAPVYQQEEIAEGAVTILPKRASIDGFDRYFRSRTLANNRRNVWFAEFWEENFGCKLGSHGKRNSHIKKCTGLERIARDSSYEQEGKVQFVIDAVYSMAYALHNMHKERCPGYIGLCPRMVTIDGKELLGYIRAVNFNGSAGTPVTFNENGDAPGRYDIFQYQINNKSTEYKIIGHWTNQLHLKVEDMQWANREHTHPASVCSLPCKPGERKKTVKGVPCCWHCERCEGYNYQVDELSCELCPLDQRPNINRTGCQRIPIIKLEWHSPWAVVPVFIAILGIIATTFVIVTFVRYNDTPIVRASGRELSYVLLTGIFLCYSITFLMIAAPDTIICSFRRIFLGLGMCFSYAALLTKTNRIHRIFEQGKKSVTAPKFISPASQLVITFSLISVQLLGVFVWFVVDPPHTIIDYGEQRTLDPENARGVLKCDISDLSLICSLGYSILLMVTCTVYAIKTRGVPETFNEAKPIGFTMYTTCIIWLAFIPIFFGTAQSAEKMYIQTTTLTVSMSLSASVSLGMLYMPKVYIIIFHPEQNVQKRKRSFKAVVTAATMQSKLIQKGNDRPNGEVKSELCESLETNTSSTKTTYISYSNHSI
row,SMILES,z-score
1,CCC(C)(NC(=O)c1ccc(=O)[nH]c1)C(=O)NC1CCCC1 (stereo not given),0.0173
2,CN(Cc1nc2ccccc2n1C)S(=O)(=O)c1ccc(F)cc1,0.229
3,Cc1cccc2cc(COC(=O)c3cccs3)c(=O)[nH]c12,-0.507
4,CC1CC(=O)c2cnc(NCC3CCCO3)nc2C1 (stereo not given),0.252
5,CSCCC(NC(=O)c1ccccc1)C(=O)OCC(=O)c1ccc[nH]1 (stereo not given),-0.554
6,COc1cc(/C=C2/SC(=S)N(CC(=O)Nc3cccnc3)C2=O)cc(OC)c1OC,0.317
7,CCOC(=O)C1CCCN(Cc2ccc3c(c2)OCO3)C1 (stereo not given),-0.574
8,O=C(Nc1ccc(Br)cc1)C1CCC(=O)N1Cc1ccccc1Cl (stereo not given),active: 4.3
9,O=C(CCN1C(=O)C2C3C=CC(C3)C2C1=O)Nc1ccccn1 (stereo not given),0.89
10,CCN(CC)CCOc1ccc2c(c1)C(=NO)c1cc(OCCN(CC)CC)ccc1-2,1.22
11,Cc1cc(C)n(C(=O)CNC(=O)c2ccco2)n1,0.615
12,COc1cc(/C(C)=N/NC(=O)CSc2nncn2C)ccc1OCc1ccccc1Cl,-0.378
13,Cc1nc2ccc(S(=O)(=O)NCC(=O)N(C)Cc3ccco3)cc2s1,0.315
14,O=C(N/N=C(/CC(=O)c1cccs1)C(F)(F)F)c1ccc(O)cc1,-0.828
15,CC(C)NS(=O)(=O)c1cccc2nsnc12,-0.236
16,CCNC(=O)CN1C(=O)NC(CCc2ccccc2)C1=O (stereo not given),-0.12
17,COc1ccccc1-n1cnnc1SC1CCOC1=O (stereo not given),0.0218
18,O=C(C1CCCCN1S(=O)(=O)c1ccc(F)cc1)N1CCN(c2ccccc2F)CC1 (stereo not given),-0.386
19,Cc1ccc(S(=O)(=O)NC(CC(C)C)C(=O)Nc2nccs2)cc1 (stereo not given),-0.335
20,CC(=O)c1sc2nc(-c3cccs3)ccc2c1N,-0.684
21,CCc1ccc(/C=C2/C(=O)N(c3ccccc3)C(=S)N2CC(=O)OC)s1,-0.103
22,COc1ccc(-c2nn(-c3ccccc3)cc2C2CC(c3cccs3)=NN2C(=O)CCCC(=O)O)cc1 (stereo not given),-0.298
23,O=C1N(c2cccc(Cl)c2)C(c2ccc(Cl)cc2)N2CCCN12 (stereo not given),-0.0961
24,CCOC(=O)CN1N=C(/C=C/c2ccc(OC)cc2)CCC1=O,0.0234

row,SMILES,z-score
1,CC1(C)Cc2c(sc3c2c(=N)n(Cc2ccco2)c(=O)n3CC(=O)Nc2ccccc2)CO1,0.0148
2,COC(=O)c1c(C(=O)OC)c2n(c1C)CCC2,1.16
3,CCN(CCCNC(=O)C1CCC(=O)N1Cc1ccc(C)cc1)c1cccc(C)c1 (stereo not given),-0.447
4,CC(=O)NC1C(=O)N=C(SCC(=O)NC2CCCCC2)NC1=O (stereo not given),-0.0825
5,CCOC(=O)c1ccc(NC(=O)CN2C(=O)C(C)SC(C)C2=O)cc1 (stereo not given),-0.088
6,CC1CCCN(C(=O)CSc2nnc3n(C4CCCC4)c(=O)c4ccccc4n23)C1 (stereo not given),-0.217
7,OCCSc1nc2ccccc2n1CCOc1ccccc1,-0.0972
8,COCCn1c(SCc2c(F)cccc2Cl)nc2c1c(=O)[nH]c(=O)n2C,0.0678
9,CCCCn1c(=N)n(CC(O)COc2cccc(C)c2)c2ccccc21 (stereo not given),active: 4.52
10,CCS(=O)(=O)NCCc1csc(-c2ccccc2)n1,-0.276
11,COC(=O)c1ccc(CN(Cc2ccc(C(=O)OC)o2)C(C)(C)C)o1,0.0836
12,CC(C)CC1(C)NC(=O)N(CC(=O)NC(=O)Nc2ccc3c(c2)OCCO3)C1=O (stereo not given),1.27
13,CCc1cc(OCCCSc2nc(C)cc(=O)[nH]2)ccc1Cl,-1.02
14,O=C(c1ccccn1)N1N=C2/C(=C/c3ccc(F)cc3)CCCC2C1c1ccc(F)cc1 (stereo not given),-0.672
15,CCc1nnc(NC(=O)c2cc(S(=O)(=O)N(CC)CC)ccc2Cl)s1,-0.0937
16,CCCc1cc(-c2[nH]ncc2-c2ccc(C(=O)OCC)o2)c(O)cc1O,0.538
17,CCc1ccc(NCc2cc3c(C)nn(-c4ccccc4)c3[nH]c2=O)cc1,active: 5.48
18,Cc1cccc(-n2c(C)cc(/C=N/O)c2C)c1,-0.205
19,C=CCN1CC(O)=C(c2ccccc2)C1=N,0.216
20,COc1ccc(-c2n[nH]c3c2C(c2ccc(OC)c(OC)c2)N(c2ccccc2)C3=O)cc1 (stereo not given),-0.609
21,Cc1cc(C)c(NC(=O)C2CCCN2C(=O)NC2CCCCC2)c(C)c1 (stereo not given),1.35
22,Cc1ccc(Nc2nc(CSc3nnnn3C)cs2)cc1,-0.362
23,Cn1c(=O)c2c(nc(NCCCN3CCOCC3)n2Cc2ccc(Cl)cc2)n(C)c1=O,-0.0118
24,O=C(CCNS(=O)(=O)c1c(Cl)cccc1Cl)OCC(=O)c1ccccc1,-0.357

row,SMILES,z-score
1,C#CC[N+](C)(C)CCCCCCCCCCCC,0.358
2,Cc1nn(Cc2ccccc2)c(Cl)c1/C=N/NC(=O)c1cccnc1,-0.186
3,Cc1ncc([N+](=O)[O-])n1CC(=O)NCc1ccccc1,-0.142
4,Cc1ccc(NS(=O)(=O)c2cc(OCC(N)=O)c(C)cc2Cl)cc1,0.104
5,COc1ccc(-c2c(C)nn(Cc3ccccc3)c2N)cc1,-0.171
6,COc1ccc(Cc2nc(-c3cccs3)no2)cc1OC,-0.202
7,CC(C)Oc1cccc(-c2cc(C(=O)NC(=S)N(C)c3ccccc3C(=O)O)c3ccccc3n2)c1,1.26
8,CCOc1ccccc1-c1cc(C(=O)N/N=C/c2ccc(O)c(OC)c2)c2ccccc2n1,-0.512
9,CCOC(=O)C(=CNc1ccc(C)cc1C)C(=O)OCC,-1.6
10,O=C(CNC(=O)c1cccs1)NCC(=O)OCc1ccccc1Cl,0.219
11,COc1cccc(-n2c(=O)[nH]cc(C(=O)Nc3ccc4c(c3)OCCO4)c2=O)c1,-0.615
12,CC(C)CNC(=O)c1coc(=O)c(Br)c1,-0.331
13,Cc1ccc(CNC(=O)C(=O)NCC(c2ccco2)N2CCOCC2)cc1 (stereo not given),0.092
14,CC(C)N(CCNC(=O)C1CCC(=O)N1Cc1ccc(F)cc1)Cc1ccccc1 (stereo not given),-0.0736
15,COc1cc(/C=N/NC(=O)CN(CCc2ccccc2)S(=O)(=O)c2ccc(NC(C)=O)cc2)cc(OC)c1OC,-0.0703
16,Cc1ccc(NC(=S)NNC(=O)Cn2nc([N+](=O)[O-])cc2C)cc1,0.0242
17,Cc1ccc(NC(=O)COC(=O)CCC(=O)c2ccc(Cl)cc2)cc1S(=O)(=O)N(C)C,active: 3.92
18,O=C(CNC(=O)c1ccco1)NCC(=O)OCc1ccccc1Br,0.481
19,Cc1cccc(NC(=O)C2CC(=O)N(c3ccccc3)C2)c1C (stereo not given),0.149
20,Cc1cc(NC(=O)c2ccc(COc3ccc(Cl)c(C)c3)o2)no1,-0.225
21,CCS(=O)(=O)Nc1c(C)n(C)n(-c2ccccc2)c1=O,0.522
22,CCCC(O)(c1ccc(OC)cc1)C(CN(C)C)c1ccccc1 (stereo not given),0.139

# From PubChem BioAssay AID488969 (Vanderbilt High Throughput Screening Facility, 2010)
